Measurements as given in the supplement of paper PMC3334620.
In all, about 33,000 sequences were measured (“E-score (-0.5 to 0.5)”: median about -0.056, highest 2% from about 0.38 on). This is one part of the list.

Each sequence was assayed against Stb4 (UniProt P50104) (assay: PBM E-score (8-mer binding enrichment) (E-score (-0.5 to 0.5)); higher = stronger / more preferred TF binding; most listed sequences are background and not binding sites). Settings: protein concentration: 200 nM; construct: GST-DNA-binding domain.
How it was run: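 Using PURExpress in vitro transcription/translation, GST-tagged yeast transcription factors were made in full-length or DNA-binding-domain form. These were applied at about 100-200 nM to double-stranded universal all-10-mer Agilent arrays, and bound protein was detected with fluorescent anti-GST. Scans were normalised with masliner before the Universal PBM Analysis Suite assigned E-scores to ungapped eight-base words pooled with their reverse complements.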
With AGTATACA the “PBM E-score” value was -0.146.
GACTTAAA was tested, and the “PBM E-score” value was -0.0184.
In the case of ACTTTGGA, the “PBM E-score” value is reported as -0.185.
CTGGGAAC was tested, and the “PBM E-score” value was -0.0256.
In the case of GCATCCAC, the “PBM E-score” value is reported as -0.0227.
In the case of GGTTTAAC, the “PBM E-score” value is reported as 0.00403.
For CAACATAC, the “PBM E-score” value was -0.00716.
In the case of GAGTGCGA, the “PBM E-score” value is reported as -0.0302.
With CTTAAGCC the “PBM E-score” value was 0.00161.
For ACTTCACA, the “PBM E-score” value was -0.0964.
In the case of CCCAACGC, the “PBM E-score” value is reported as -0.166.
CAGAGCAG was tested, and the “PBM E-score” value was -0.134.
For ACAAGAAT, the “PBM E-score” value was -0.145.
AATTGTAC was tested, and the “PBM E-score” value was 0.00703.
In the case of ACGGCCCG, the “PBM E-score” value is reported as 0.284.
With GACACCTA the “PBM E-score” value was -0.0375.
In the case of GTTCATAA, the “PBM E-score” value is reported as -0.109.
In the case of AATCTACC, the “PBM E-score” value is reported as 0.26.
GTCTGTTA was tested, and the “PBM E-score” value was 0.0512.
In the case of ACTGTCCG, the “PBM E-score” value is reported as 0.183.
TACAACAA was tested, and the “PBM E-score” value was -0.072.
TGCGTACA was tested, and the “PBM E-score” value was -0.0717.
CGCTGAGA was tested, and the “PBM E-score” value was -0.109.
For AACCTTAC, the “PBM E-score” value was 0.0238.
For CTGTGGTA, the “PBM E-score” value was -0.0522.
With GCCAGAAA the “PBM E-score” value was -0.0452.
For CCATATAC, the “PBM E-score” value was -0.0759.
With CAGCAGTC the “PBM E-score” value was -0.156.
With AGGGCGGC the “PBM E-score” value was -0.073.
ACACTTCT was tested, and the “PBM E-score” value was -0.0789.
For ATTGATAG, the “PBM E-score” value was -0.0914.
In the case of CTATGAAA, the “PBM E-score” value is reported as -0.0999.
In the case of ATATAACA, the “PBM E-score” value is reported as 0.169.
CCTCGTTC was tested, and the “PBM E-score” value was -0.0536.
TATTACGA was tested, and the “PBM E-score” value was 0.0297.
In the case of ATCAAACA, the “PBM E-score” value is reported as -0.0992.
For AATCCCAA, the “PBM E-score” value was -0.207.
In the case of ATATTGAT, the “PBM E-score” value is reported as -0.0201.
CGGGGCCA was tested, and the “PBM E-score” value was 0.22.
For CACACCTA, the “PBM E-score” value was -0.039.
ACGCATAT was tested, and the “PBM E-score” value was -0.175.
CAATTATG was tested, and the “PBM E-score” value was 0.00751.
For ACTGGCAT, the “PBM E-score” value was -0.297.
With AGGTACTG the “PBM E-score” value was -0.0959.
In the case of GGGACCAC, the “PBM E-score” value is reported as 0.0431.
For AAATTAAC, the “PBM E-score” value was 0.13.
For AGCCGATG, the “PBM E-score” value was 0.321.
In the case of ACGGAGAT, the “PBM E-score” value is reported as 0.138.
With ATTAGACA the “PBM E-score” value was -0.248.
In the case of TTTCGAAA, the “PBM E-score” value is reported as -0.307.
ACCGAATC was tested, and the “PBM E-score” value was 0.357.
ACAAGCGC was tested, and the “PBM E-score” value was 0.0421.
CTGCCACC was tested, and the “PBM E-score” value was -0.142.
With CATGATAA the “PBM E-score” value was -0.105.
CGGCTCAG was tested, and the “PBM E-score” value was 0.284.
TGTAGACA was tested, and the “PBM E-score” value was -0.184.
With ACGCATAG the “PBM E-score” value was -0.101.
ATCGTGTA was tested, and the “PBM E-score” value was -0.0401.
With CTCGGAAC the “PBM E-score” value was 0.485.
In the case of CTGTTCTA, the “PBM E-score” value is reported as -0.155.
In the case of ACGCATCT, the “PBM E-score” value is reported as -0.00371.
With GCATGTCC the “PBM E-score” value was -0.165.
CAGTCGCA was tested, and the “PBM E-score” value was -0.283.
For CCCGGGTC, the “PBM E-score” value was 0.32.
In the case of AGCGCGGC, the “PBM E-score” value is reported as 0.0405.
In the case of CGGGTAAA, the “PBM E-score” value is reported as 0.424.
CTACTCTA was tested, and the “PBM E-score” value was -0.0966.
For ATTTGGTA, the “PBM E-score” value was -0.0379.
With CGATTAAA the “PBM E-score” value was 0.178.
With GATCTGAC the “PBM E-score” value was 0.0187.
With ATTTTTGA the “PBM E-score” value was -0.158.
AAGTGGTA was tested, and the “PBM E-score” value was -0.0829.
For CCTCACCA, the “PBM E-score” value was -0.19.
With AAGAAATG the “PBM E-score” value was -0.0362.
For AGGGCTCG, the “PBM E-score” value was 0.104.
With ACCGAGGG the “PBM E-score” value was 0.27.
GTCGCTAA was tested, and the “PBM E-score” value was 0.0252.
In the case of ATATTATG, the “PBM E-score” value is reported as -0.0655.
With ATATGCAA the “PBM E-score” value was 0.00485.
With AACTATTA the “PBM E-score” value was 0.0616.
In the case of CTGGTCCC, the “PBM E-score” value is reported as -0.0143.
In the case of CCAACGAG, the “PBM E-score” value is reported as -0.139.
ACTTAATG was tested, and the “PBM E-score” value was -0.0296.
For AGCGTTCC, the “PBM E-score” value was 0.126.
In the case of CTATTGAG, the “PBM E-score” value is reported as -0.21.
With GATTAATC the “PBM E-score” value was 0.358.
For CATCCTCG, the “PBM E-score” value was 0.178.
In the case of AATGTGCA, the “PBM E-score” value is reported as -0.18.
AGTGAGCG was tested, and the “PBM E-score” value was -0.236.
GTAAATAC was tested, and the “PBM E-score” value was -0.0115.
For AAGCAAGC, the “PBM E-score” value was -0.0717.
GGAGTGCA was tested, and the “PBM E-score” value was 0.134.
For TTGCGAAA, the “PBM E-score” value was 0.116.
In the case of AAGTTTCC, the “PBM E-score” value is reported as 0.151.
For GAAAAGTA, the “PBM E-score” value was -0.0737.
In the case of AGCATGGG, the “PBM E-score” value is reported as -0.212.
For GAATGAGA, the “PBM E-score” value was 0.114.
In the case of GATCTGCC, the “PBM E-score” value is reported as 0.0843.
With AAAGAATC the “PBM E-score” value was -0.104.
With ACAGCAAT the “PBM E-score” value was -0.122.
In the case of GAGCAGCA, the “PBM E-score” value is reported as -0.0223.
For CCGTTCCC, the “PBM E-score” value was 0.273.
ATACGATC was tested, and the “PBM E-score” value was 0.0197.
AGAGCTAG was tested, and the “PBM E-score” value was -0.164.
CTAGAGGA was tested, and the “PBM E-score” value was -0.154.
In the case of GTAGTCAC, the “PBM E-score” value is reported as -0.16.
AAGGGGTG was tested, and the “PBM E-score” value was -0.286.
With ACTTCGAT the “PBM E-score” value was -0.117.
In the case of CGCTACTC, the “PBM E-score” value is reported as 0.0414.
For AGTGTAGC, the “PBM E-score” value was 0.0345.
With GCCTGCAA the “PBM E-score” value was -0.18.
CTTAAACC was tested, and the “PBM E-score” value was -0.16.
In the case of GACAATCA, the “PBM E-score” value is reported as 0.0553.
CCTGTTTA was tested, and the “PBM E-score” value was 0.0272.
For CACGTGGC, the “PBM E-score” value was -0.357.
CGAGTAAG was tested, and the “PBM E-score” value was 0.176.
GGACCACC was tested, and the “PBM E-score” value was -0.0377.
In the case of GGCCCACA, the “PBM E-score” value is reported as -0.0575.
With ACAAGTGG the “PBM E-score” value was -0.283.
With CGATGAAC the “PBM E-score” value was 0.0607.
In the case of AGGCGGTC, the “PBM E-score” value is reported as -0.135.
For CCTCGCGA, the “PBM E-score” value was -0.00934.
For ATCCGTAC, the “PBM E-score” value was 0.348.
For ACATGCAA, the “PBM E-score” value was -0.204.
With CTTTCTTC the “PBM E-score” value was 0.0646.
For CGATGTAG, the “PBM E-score” value was -0.145.
For AACAAATT, the “PBM E-score” value was -0.00925.
GGAACATA was tested, and the “PBM E-score” value was 0.193.
In the case of CTAACGGA, the “PBM E-score” value is reported as 0.191.
In the case of AGAAATAC, the “PBM E-score” value is reported as -0.086.
With AGGATACG the “PBM E-score” value was -0.23.
AGCTAGTA was tested, and the “PBM E-score” value was -0.0622.
CTTCAAAC was tested, and the “PBM E-score” value was -0.0775.
In the case of GCGATGAA, the “PBM E-score” value is reported as -0.0956.
AGCTAGCT was tested, and the “PBM E-score” value was -0.303.
For AGTATTTA, the “PBM E-score” value was -0.164.
CTGAAACA was tested, and the “PBM E-score” value was 0.0153.
With ATGGTAGA the “PBM E-score” value was -0.105.
In the case of AACACGGT, the “PBM E-score” value is reported as 0.0299.
For GAGGAGGC, the “PBM E-score” value was -0.196.
With TAATAACA the “PBM E-score” value was 0.0486.
For GCCATGTA, the “PBM E-score” value was -0.0485.
ACGATCCA was tested, and the “PBM E-score” value was -0.0732.
For CAGTAATC, the “PBM E-score” value was -0.225.
AGACAAAG was tested, and the “PBM E-score” value was -0.166.
In the case of AACTTTAT, the “PBM E-score” value is reported as -0.0518.
With CGAATGAG the “PBM E-score” value was 0.191.
With ATTTTACG the “PBM E-score” value was 0.128.
CCTCTAAC was tested, and the “PBM E-score” value was 0.0421.
For GGCTAAAA, the “PBM E-score” value was 0.143.
ACTGACAT was tested, and the “PBM E-score” value was -0.155.
In the case of ATAGATCC, the “PBM E-score” value is reported as 0.146.
In the case of AGACGAGA, the “PBM E-score” value is reported as -0.134.
For GCAATGCC, the “PBM E-score” value was 0.138.
With CCACGTAA the “PBM E-score” value was -0.236.
For ATATTCAA, the “PBM E-score” value was 0.066.
In the case of GGACAAGA, the “PBM E-score” value is reported as -0.0939.
ACCGGATC was tested, and the “PBM E-score” value was 0.353.
For GTCCCCCA, the “PBM E-score” value was -0.144.
With CCTAAGAA the “PBM E-score” value was -0.272.
For CCACTCCG, the “PBM E-score” value was 0.146.
For CTTAGTCA, the “PBM E-score” value was -0.252.
AAGCTACG was tested, and the “PBM E-score” value was -0.208.
In the case of GTATTGGA, the “PBM E-score” value is reported as -0.0868.
GATTGAGA was tested, and the “PBM E-score” value was -0.0336.
For AAGGTTGG, the “PBM E-score” value was -0.024.
With AATTAGAT the “PBM E-score” value was -0.0353.
In the case of GCATCGCA, the “PBM E-score” value is reported as -0.193.
GCCGAAAC was tested, and the “PBM E-score” value was 0.397.
In the case of AACGATAC, the “PBM E-score” value is reported as -0.196.
In the case of GATAGTCC, the “PBM E-score” value is reported as -0.00459.
In the case of TAGTTTAA, the “PBM E-score” value is reported as -0.0938.
